Experiment [1] has as its target H1 HA stem construct (mini-HA #4900). Briefly: mRNA display binding score; higher = more enriched on the antigen. The conditions noted are these: antigen blocked with: nothing. On the procedure:
(§1)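 A pool of natively paired antibodies, displayed as scFv on mRNA, was selected once on antigen-coated beads and sequenced before and after; two replicates.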

Experiment [2] addresses H3 HA stem construct (H3ssF). The experiment is described as above. The following applies: antigen blocked with: nothing. On the procedure:
as §1

The list shows a part of the results. Binding of human antibodies (heavy:light variable regions, tested as scFv in one mRNA-display pool) to influenza hemagglutinin, with or without the stem antibody CR9114 bound first. Score = (mean enrichment − median) / interquartile range of that screen; higher = more enriched, 0 = typical non-binder. Active = above the paper's cut-off per screen: stems 28; unblocked H1 Solomon Islands 5, H1 Michigan 3, H3 5, H5 19, H7 2.85, both B 5; blocked 9, 7, H5 10, H7 10, B Phuket 10, B Lee 11.5. Scores are scaled within each screen and are no affinities; replicates correlate at about 0.6 to 0.9, and antibodies rare in the pool are noisier.

B1: K77-2F08 (protein)
chain 1: EVQLVESGEGVVHPGTSLRLSCAASGFTFGSYGLHWVRQAPGKGLEWVAFISYDGGEKSYADSLKGRFAISRDKSKNVLYLEMNTLRAEDTALYSCARTWNSYFFDQWGQGTLVTVSS
chain 2: QSALTQPASVSGSPGQSITISCTGTGSDVGIYNLVSWYQHHPGKAPKFMIYEVSERPSGVSSRFSGSKSGNTASLTISGLQAEDEANYYCCSYAGSNTWVFGGGTKLTVL
Take B1: the “mRNA display binding score” value in experiment [1] is inactive: 0.192; in experiment [2] it was inactive: -0.134.

B2: 045-09-1F04 (protein)
chain 1: EVQLVESGGGLVQPGGSLRLSCAGSGFSFSSYSMNWVRQAQGRGLEWVSYISSYSGTIYYADSVKGRFTISRDNAKNSLYLQMNSLTADDTAVYYCARDDDSNDYNQDRYYYYGMDVWGQGTTVTVSS
chain 2: EIVMTQSPATLSVSPGERATLSCRASQSVSSNLAWYQQKPGQAPRLLIYGASTRATGIPARFSGSGSGTEFTLTISSLQSEDFALYYCQQYDNWPPITFGQGTRLEIK
For B2, the “mRNA display binding score” value in experiment [1] is inactive: 0.357; in experiment [2], inactive: -0.132.

B3: R95-2E12 (protein)
chain 1: QVQLQESGPGLVKPSETLSLTCVVSDGSISSSTYYWGWIRQPPGKGLEWIGSIYYSGDTYYNPSLKSRVITSVDTSKNQFSLKLSSVTAADTAVYYCARHGPWQLSYFDYWGQGTLVTVSS
chain 2: QSALTQPRSVSGSPGQSVTISCTGTGSRVGGYHYVSWYQQHPGKAPKLMIYEVNKRPSGVPDRFSGSQSGNTASLTISGLQAEDEADYYCCSYAGSFLLFGGGTKLSV
Take B3: the “mRNA display binding score” value is inactive: -0.909 in experiment [1] and inactive: -0.701 in experiment [2].

B4: 56.d.01 (protein)
chain 1: EVQLVESGGGLVQPGGSLRLSCSASGFTVSNYAMHWVRQAPGKGLEYVSAISVNGFSTFYTDSVKGRFTISKDNSKNTLYLQMSSLRPEDTAVYYCVKAESYDFWSGYDWGQGTQVTVSS
chain 2: EIVLTQSPGTLSLSPGERATLSCRASQSVSSSSLAWYQQKPGQAPRLLIFGASSRATGIPDRFSGSGSGTDFTLTISRLEPEDFAVYYCQQYGSLGTFGGGTKVEIK
With B4, the “mRNA display binding score” value was inactive: 0.429 in experiment [1] and inactive: 0.268 in experiment [2].

B5: antibody 1G03 (protein)
chain 1: EVQLVETGGGLIQPGGSLRLSCAASGFIVSSNYMSWVRQAPGKGLEWVSVIYGGSSTYYADSVKGRFIISRDNSKSTLYLQMNSLRAEDTAVYYCARGPADIVAAGTYPYYYYAMDVWGQGTTVTVSS
chain 2: DIQMTQSPDSLAVSLGERATINCKSSQSVLYSSNNKNYLAWYQQKPGQPPKLLIYWASTRESGVPDRFSGSGSGTNFTLTIRSLQAEDVAVYYCQQYYITPYTFGQGTKVEIK
For the molecule B5, the “mRNA display binding score” value is inactive: -0.507 in experiment [1] and inactive: 0.312 in experiment [2].

B6: antibody 4D06 (protein)
chain 1: VQLVESGGGVVQPGTSLRLSCVASEFTFSSSGMHWVRQAPGKGLEWVAIISYDGRKKYYVDSVEGRFTISRDNSKNTLYLQMNSLRVEDTAIYYCAKASTVTKRYNWFDPWGQGTLVTVSS
chain 2: DIQMTQSPSSLSASVGDRVTITCRASESISSYLNWYQQRPGKAPKLLIYAASSLQTGVPSRFSGSGSGTDYTLTISSLQPEDFATYFCQQSYSTPLTFGPGTKVDIK
As to B6, the “mRNA display binding score” value in experiment [1] is inactive: 1.99; in experiment [2], inactive: 7.88.

B7: W85-1B04 (protein)
chain 1: LVQLQQWGAGLLKPSETLSLTCAVYGGSFSGYYWSWIRQPPGKGLEWIGEINHSGSSNYKPSLKSRVAISVDTSKNQFSLKLSSVTAADTAVYYCARGGRDGYNYTPFRAFDIWGQGTMVTVSS
chain 2: SYELTQPPSVSLSPGQTASITCSGDKLGDKYVCWYQQKPGQSPVLVIYADSKRPSGIPERFSGSNSGNTATLTISGTQAMDEADYYCQAWDTSTAIFGGGTRLTV
Take B7: the entries for the “mRNA display binding score” value in experiment [1] and in experiment [2] were inactive: 0.0976 and inactive: -0.0726, respectively.

B8: W85-3B05 (protein)
chain 1: EVQLMESGGGVVHPGRSLRLSCAASGFTFSSYAMHWVRQAPGKGLEWVAIISHDGSNKYYADSLKGRFTISRENSRSMVYLHVSSLRTEDTAVYYCARDLCSTSSCYVDHWGQGTLVTVSS
chain 2: DIQMTQSPSSLSASVGDRVTIICRASQGVSNWLAWYQQKPGKAPKSLIYAASALQSGVPSRFSGSGSGTEFSLTISNLQPEDFATYYCQQYNSYPLTFGGGTKVEIK
Consider B8, for which the “mRNA display binding score” value in experiment [1] was inactive: 0.29; in experiment [2] it was inactive: -0.391.

B9: 024-10-4C04 (protein)
chain 1: EVQLVQSGAEVKKPGESLKISCKGSEYSFSNYWIGWVRQMSGKGLEWMGIIYPDDSDTRYSPSFQGQVTISADKSISTAYLQWSSLKASDTAMYYCVRHSDAHSTNPDPPFYFRFAMDVWGQGTTVTVSS
chain 2: QSVLTQPPSVSGAPGQRVIISCTGNNSNIGAGHDVHWYQQVPGTAPKLLIFGNKNRPSGVPDRFSGSKSGSSASLAITGLQAADEADYYCQSYDNSLSLSHYWVFGGGTKVTVL
Regarding B9, the entries for the “mRNA display binding score” value in experiment [1] and in experiment [2] were inactive: 0.386 and inactive: -0.43, respectively.

B10: C1-B01 (protein)
chain 1: VQLVESGGGLVQPGGSLRLSCAASGFPFATYSMNWVRQAPGKGLEWLSYISSSSATVFYADSVKGRLTISRDNAKNSLYLQMYSLRAEDTAVYYCAREEVVVAGTPFDSWGQGALVTVSS
chain 2: EIVMTQSPATLSVSPGERATLSCRASQSVGSRLAWYQQKPGQPPRLLLYDASTRATDIPARFSGTGYGTEFTLTISSIQSEDFAVYHCHQYSGWPPWTFGQGTKVEIK
Turning to B10, the “mRNA display binding score” value was inactive: 0.179 in experiment [1] and inactive: 0.644 in experiment [2].

B11: K77-2A09 (protein)
chain 1: EVQVVESGGTVVQPGGSLTLSCTTSGFTFDNFAMHWVRQAPGKGLEWVALVGWDSAVIYYADSVQGRFNISRDNSKNSLYLQMNSLRAEDTALYYCAKDDDPGNYGYFHYSLDVWGQGTAVTVTS
chain 2: DVVMTQSPLSLPVTLGQPASISCRSSQSLVDSYGDTYLNWFQQRPGQSPRRLIYKVSNRDSGVPDRFSGSGSGTDFTLKISRVEADDVGVYYCMQGTHWPLTFGGGTKVEI
As for B11, the results for the “mRNA display binding score” value in experiment [1] and in experiment [2] were inactive: -0.336 and inactive: 2.23, respectively.

B12: W85-2F03 (protein)
chain 1: EVQLVESGGGLVQPGRSLRLSCTTSEFTFDEYTMSWVRQAPGKGLEWVGFIGSKAYRGTTEYAASVKGRFTISRDDFRSIAYLQMNSLKTEDTAVYYCTRDSGFGDYFDYWGQGTLVTVSS
chain 2: QSALTQPASVSGSPGQSITISCTGTSGDIGGYNYVSWYQQHPGKAPKLMIYDVSNRPSGVSNRFSASQSGKTASLTISGLQAEDEADYYCFSFTSTSTWVFGGGTKLTVL
Turning to B12, the results for the “mRNA display binding score” value in experiment [1] and in experiment [2] were inactive: -0.28 and inactive: 0.564, respectively.

B13: C1-2-2F04 (protein)
chain 1: VQLVESGGGVVQPGGSLRLSCAASGFIFTDYVMHWLRLTPGKGLEWVAIISFDGSNTYYTDSVKGRFTISRDQSANTLYLLMNSLRPDDTAVYYCVRGQDSSHYFDAWGQGALVTVSS
chain 2: EIVMTQSPATLSVSPGERATLSCRASQDIGTNLAWYQQKPGLAPRLLIYGVSTRATGIPARFSGSGSETEFTLTISIMQSEDCAVYFCQQYDFWPTFGQGTKVEIK
Regarding B13, the “mRNA display binding score” value is inactive: 0.0839 in experiment [1] and inactive: -0.739 in experiment [2].

B14: K77-1C12 (protein)
chain 1: EVQLVESGGGVVQPGGSLRLSCAASGFTFSNYGMHWVRQAPGKGLEWVAFIRYDGSNEYYGDSAKGRFTISRDNSKNTLYLQLISLRPDDTAVYYCANEPDPQSGGLRNDGVVHHDHWGQGTLVTVSS
chain 2: QSALTQPVSVSGSPGQSITISCTGTSFDVGGYHYVSWYQQYPGKAPKLMIYDVSKRPSGVSNRFSGSKSGITASLTISGLQAEDEADYHCGSYTSSYTWVFGGGTKLTVL
Take B14: the entries for the “mRNA display binding score” value in experiment [1] and in experiment [2] were inactive: -1.21 and inactive: -0.24, respectively.

B15: 024-10-4C05 (protein)
chain 1: QLQLQESGPGLVKPSETLPLICTVSGGAIRFSSYYWGWIRQAPGKGLEWIATIHYSGTAHYNPSLKSRLTISVDTSTNQFSLRLSSVTAADTAVYYCARHRGYCSGGGCFGEVYFDSWGQGALVTVSS
chain 2: DIQMTQSPSSLSASVGDRVTITCRASQNIRTYLSWYQQKPGGAPKLLIYAASSLQSGVPLRFSGSGSGTDFTLTINGLQPEDFATYYCQQSYTTIVFGGGTKVEIK
Take B15: the “mRNA display binding score” value in experiment [1] was inactive: -1.08; in experiment [2], inactive: 0.484.

B16: R95-2H06 (protein)
chain 1: EVQLVESGGVVQQPGGALRLSCAASGLTFDEYAMHWVRQAPGKGLEWVSLITWDGGTTYYADSVKGRFTISRDNSKNSLYLQMNSLRPEDSGLYYCAKDPYGSGSAGWFDPWGQGTLVTVSP
chain 2: DIQMTQSPSSLSASVGDRVNITCRASQSIIFYLNWYQQRPGKAPKLLIYHASILQSGVPSRFTGSGSGTDFTLTISSLQPEDLATYYCQQSYSIPLTFGGGTKVEIK
For the molecule B16, the entries for the “mRNA display binding score” value in experiment [1] and in experiment [2] were inactive: -0.0485 and inactive: -0.179, respectively.

B17: antibody 3E06 (protein)
chain 1: VQLQESGPGLVKPSETLSLNCTVSGGSIITSSLYWGWIRQPPGKGLEWIGCIYVDGSTYYNPSLTSRVTISVDTSKNQFSLSLTSVTAQDTAVYYCARPTGEGGGAFDIWGQGTMVTVSS
chain 2: DIQMTQSPSTLSASVGDRVTITCRASQSISIWLAWFQQKPGKAPKLLIYKASTLETGVPSRFSGSGSGTEFTLTISSLQPDDFATYYCQQYNIYWTFGQGTKVEIK
Turning to B17, the “mRNA display binding score” value in experiment [1] is inactive: 0.307; in experiment [2], inactive: -0.219.

B18: antibody 5D03 (protein)
chain 1: VQLVQSGAEMKKPGESLQISCEGSGYNFNGYWIGWLRQMPGKGLEWMGIIHPSDSDTRYSPSLQGQVTISVDKSISTAYLLWNSLKTSDTAIYYCARRGGANYGLDYWGQGTLVTVSS
chain 2: DIQMTQSPSSLSASVGDRVTITCRARQTINRYLNWYQQKPGKAPKLLIYAATNLQSGVPSRFSGTGSGTLFTLTISSLQPEDLATYFCQQTYSTLGTFGPGTKVDIK
Take B18: the “mRNA display binding score” value was inactive: -1.02 in experiment [1] and inactive: 0.28 in experiment [2].

B19: R95-2E07 (protein)
chain 1: EVQLVESGGGLVQPGGSLRLSCAASGFPFSTYWMYWVRQAPGKGLVSVSRINSDGSGTSYADSVEGRFTISRDNAKNTLYFQMNSLRAEDTAVYYCARRFGSGWTEWYFDLWGRGTLVTVSS
chain 2: DIQMTQSPSTLSASVGDKVTITCRASQSINRWLAWYQQKPGKAPKLLIYRASSLESGVPSRFSGSGSGTEFTLTISSLQPDDFATYFCQHYEGYSWTFGQGTKVDIK
As to B19, the “mRNA display binding score” value is inactive: 0.324 in experiment [1] and inactive: 0.00968 in experiment [2].

The values are drawn from the supplement of paper PMC11383711.
